In all, about 150,000 compounds went through this assay and about 540 (0.36%) showed an effect of 50% or more. Some of the results follow.
These molecules were tested on Plasmodium falciparum (assay: Primary screen in NF54 nanoGlo assay, in single point, at 2uM, 72h; a lower Z score goes with more inhibition). Conditions: timepoint 72 hour.
Assay type: functional, Erythrocyte

SMILES	% Inhibition	Z score
O=C(NCc1ccc(-c2ccco2)o1)c1ccccc1	4%	-0.6
O=C(OCc1cncs1)c1cncc(F)c1	-6%	0.94
Cc1ccc(-n2ncc(C(=O)Nc3cccc(C(F)(F)F)c3)c2C2CCN(C(=O)OC(C)(C)C)CC2)c(C)c1	8%	-0.78
Cc1nc(CN[C@H](c2c(F)cccc2F)C(F)(F)F)cs1	2%	-0.4
C[C@](O)(CN1CCc2ccccc2C1)c1ccc(S(C)(=O)=O)cc1	-5%	0.48
CCC1CN2CCCCC2CN1C(=O)CNC(=O)c1ccccc1 (stereo unspecified)	-3%	0.59
Cc1cccn2cc(CN(C)[C@H](c3ccccn3)C3CC3)nc12	34%	-5.4
CC(C)(CC(=O)Nc1ccc(Cc2nnc3ccccn23)cc1)C(=O)O	0%	-0.04
O=C(Cn1cc2ccccc2n1)N[C@H]1CCN(C2CCOCC2)C1=O	0%	0.05
O=C(NCC(=O)N1CCC(=C2CCC2)CC1)OCc1ccccc1	-14%	2.17
CC1CCCC(NC(C(=O)NC2CC2)c2ccccc2)C1C (stereo unspecified)	-5%	0.68
CCc1nc(C)sc1C(=O)N1CCC[C@H]1c1nc(C(C)C)no1	-21%	1.96
CCN1CCN(C(=O)c2cccc(-c3ccccc3)n2)[C@H]2CS(=O)(=O)C[C@H]21	-12%	1.08
Cc1ccccc1[C@@H](NCc1nccn1C)C1CCC(C)CC1 (stereo partly specified)	4%	-0.53
O=C(c1cnc(O[C@H]2CCOC2)c(Cl)c1)N1CCc2ccccc21	-5%	1.01
CN1CCN(c2nc(O)c3c(n2)NC(=O)C[C@H]3c2c(F)cccc2F)CC1	28%	-4.12
C[C@H](NCC1(C(N)=O)CCOCC1)c1cc2cc(Cl)ccc2o1	-1%	0.13
CC(C)c1nsc(NCc2cccc(-c3nc(-c4ccncc4)no3)c2)n1	-7%	1.01
CN1CCc2ccc(C(=O)Nc3ccc(-n4cncn4)nc3)cc21	-1%	0.26
Cc1noc(C)c1N(C)S(=O)(=O)c1ccc(Cl)s1	-7%	0.67
Cn1c(=O)cc(N(Cc2ccc(-n3cccn3)cc2)C2CC2)[nH]c1=O	-9%	1.09
CC(C)Cc1cc(C(=O)N2C[C@@H]3CC[C@H]2CN(C2CCOCC2)C3)on1	-22%	1.97
CCOc1ccc(OCC)c2sc(C)nc12	-10%	1.24

— ChEMBL document CHEMBL4888484, “Replenishing the malaria drug discovery pipeline: Screening and hit evaluation of the MMV Hit Generation Library 1 (HGL1) against asexual blood stage Plasmodium falciparum ,using a nano luciferase reporter read-out” (2022)
